Test results published in the RNAGym collection of RNA variant scans (doi:10.7554/elife.90254).
Read counts are not given, so values of variants with three or more changes are uncertain.

B1: LINE1-mini (parent)
chain: GGCAGAGCUCAACACAGCGUGGCAAAGUGGCUGUGGCUAGACUGCC

Variants of: B1
Assay: self-cleavage, relative activity (ratio to wild type); higher = more cleavage; in vitro, sequencing; the parent is a self-cleaving ribozyme

Variant | self-cleavage
GGCAGAGCUCAACACAGCGUGGCAAAGUAGUAGUGCCUAGACUCGC | 0.35
GGGAGAGCUCAACGCCGCGUGGCAAAGUGGCUGUGGCUAGACUGCC | 0.02
GGCAGAGCUCAACAGAGCGUGGCAAAGUGGCUGACGCAAGACUGCC | 0.07
GGCAGAGCUCAACACAGCGCGGCAAAGUGGCUAUGGCUCGACUGCC | 0.01
GGCAGAGCUCAGCACAGCGUGGGAGAGUGGCUGUGGCUAGACUGCC | 0.01
GGCAGAGCUUACCACAGCGUGGCAAAGUGGCUGUGGCUAAACUGCC | 0.01
GGCAGAGCUCAACACAGCGUGACAAAGUGGUUGUGGCUAGACUGCA | 0.31
GGCAGAGCACAACACAGCCUGGCAAAGUGGCUGUGGCUAUACUGCC | 0.06
GGCAAAGAUCAACACAGCGUGGGAAAGUGCCUGUGACUAGACUGCC | 0.14
GGCAGAGCUUAACACAGCGUGGCAAAGUUGCUGCGGCUAGACUGCC | 0.04
GGCAGAGCUCGACACAGCGUGGCUAAGUGGCUGCGGCUAGACUGCC | 0.02
GGCAGAGCUCAACACAGCGUGGCAAUGUAGCUGAGGCUAGACUGCC | 0.06
GGCAGAGCUAAACACAGCGUGGCAAAAUGGCUAUGGCUAGACUGCC | 0.03
GGCAGAGCUCAACACAGCAUGGCAAAGUGACUGUGGCUCGACUGCC | 0.08
AGCAGAGCUCAACACAACGUGGCAAAGUGUCUGUGGCUAGACAGCC | 0.15
GCAAGAGCUCAACACAGCGUGGCAAAGCGGCUGGGGCUAGACUGGC | 0.04
GGCAGAGCUCAACACAGCGUAGCACACAGGCUGUGGCUAGACUGCC | 0.4
GGCAGAGCUCAACACAGCGUGGCACUGUAGCUGUGAGUAGACUGCC | 0.02
GGCAGAGCCCAACAUCGCGUGGCAAAGUGGCUGUGUCUAGACUGCC | 0.03

Variant | self-cleavage
GGCAGAUCGCAACACAGCAUGGCAAAGUGGCUGUGGCUAGGCUGCC | 0.01
GGCAGGGCUCAUCACAGCGUGGCAAAGUGGCUGUGGCUAGGCUGCC | 0.05
GGCACAGAUCAACACAUCGUGGCAACGUGGCUGUGGCUAGACUGCC | 0.11
GGCAGAGGUCAAAACAGCCUGGAAAAGUGGCUGUGGCUAGACUGCC | 0.04
GCCAGAGCUCAACACAGCGUGGCAAAGACGCUGUGGCUAGACUGCC | 0.1
GGCAGAGCUCAAUACAGUGUGGAAAAGUGGCUGUGGCUAGACUACC | 0.03
GGCAGAGCUCAAUGCAGCGUGGCAAAGUGGCUGUGGCUAAACUGCC | 0.07
GGCCGAGCUCUACACAGCGUGGCAAAGUGGCUAUGGCUAGACUGCC | 0.03
GGCAGAGCUCUACACAGCGUAGCAAAGUGGCUGCGGCUACACUGCC | 0.02
GGCAGAGCUCAACACAGCGUGGCAAAGUUCCUGUGGAUAGACUGCC | 0.03
GGCAGAGCUCAAUACUGCGUGGCAAAGUGGCUCUGGCUUGACUGCC | 0.02
GGCUGAGCUCAACACAGCGUGGUAAAGUGGCUGUGGCUUGACUGCC | 0.03
GUCAGAGUUCAACACCGCGUGGCAAAGUGGCUGUGGCUUGACUGCC | 0.04
GGCAGAGCUCAACACAGCAUGGCACACUGGCUGUGGCUAGACUGCC | 0.37
GGCAGAGCACAACACAGCGUGACAAAGUGGCUGUGGCUACACUGCA | 0.07
GACAGAGCCCAACACAGCGUGGCAAAGUGGCUGUGGCUAGAUUGCC | 0.05
GGCAGAGCUCAACACGGCGUGGCAUAGUGGCUGUGGCAAGACUGCC | 0.12
GGCAGCGCUAAACACAGCAUGGCAAAGUGGCUGUGGCUAGACUGCC | 0.05
GGAAGAGCUCAACAUAGCGUGGCAAAGUCGCUGUGGCUAGACUGCC | 1.24

Variant | self-cleavage
GGCAGAGGUCAACUCAGCGUGGCAAAGUGGCUGUGGCUAGACUGCU | 0.05
GGCAGAGCUCAACCGAGCGUGGCAUAGUGUCUGUGGCUAGAUUGCC | 0.01
GGCAGGGCCCGACACAGCGUGGCAAAGUGGCUGUGGCUAGACUCCC | 0.01
GGCAGACCACAACACAGCGUGGCAAAGUGGCUGUGGCUAGACUGCA | 0.46
GGCAGAGCUCAACACAGCGGGACAAAGUGGCUGUGGCUAGAAUGCC | 0.05
GGCAGAGUUCAACACACCGUGGCAAAGUGGCUGUGGCUAGUCUGCC | 0.13
GGCAGAGCUCGCUAUACCGGGGCAAAGUGGCUGUGGCUAGACUGCC | 0.01
GGAAGAACCCAACACAGCGUGGCAAAGUGACUGUGGCUAGACUGCC | 0.06
GGCAGAGCUCAACACAGCGUGGCAAAGAGGCUGUGGAUAGACUGCA | 0.08
GGCAGAGUUCAACACAGCGUGUCAAAGUGGCUGUGACUAGACUGCC | 0.56
GGCAGAGCUCAGCACAGCGUGGCAAAGUGGCUGUGGCUACAUUGCC | 0.06
GGCAGAGCUCAAGACACCGUGGCAAAGUCGCUGUGGCUAGACUGCC | 0.11
CUCAGAGCUCAACACAGCGUGGCAAAGUGGCUGUGACUGGACUGCC | 0.08
GGCGGAGCUCAACGCAGCGUGGCAAAGUGGCUGCGGCUACACUGCC | 0
GGCAGAGAUCAACACCGCGUGGCAAACUGGCUGUGGCUAGACUGCC | 0.1
GGCAGAGCUCAACACAGGGUGGCAAAGUGGCUGUGGCUGGGCUUCC | 0.02
GGCAGAGCUCAACACAGCGUGGCAAAAUAGCUGUGGAUAGACUGCC | 0.13
GGCAGAGCUCACCACAGCGUGGCAAAGGGGCUGGGGCUAGACUGCU | 0.02
